“And” between values parts separate entries of the source, which are not always exact repeats. Equal entries are not always repeated.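 Grown in 96-well plates, cells were treated for 48 hours with each compound at five concentrations. Insufficient inhibition: endpoint recorded as highest concentration tested. Abbreviation: GI50, concentration required for 50% inhibition of growth. The concentration for full growth arrest is given as TGI.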 Peptide text beside a SMILES is read from it.

The assay relates to NCI-H322M lung. In words: NCI tumour cell line growth inhibition, 48 h.
`O=C1Cc2ccccc2CCc2ccsc21`: the TGI was more than 100 µM.

In the case of `NS(=O)(=O)c1ccc(NC(=O)c2cccc3c(Nc4ccc(S(N)(=O)=O)cc4)c4ccccc4nc23)cc1`, the TGI is more than 100 µM.

`O=C(CC(=O)C1CCOC1=O)C(=O)Nc1ccc(Cl)cc1` (stereo not given) returned a TGI of more than 100 µM.

`BrC1=CN2C[n+]3cc(Br)c4ccccc4c3N=C2c2ccccc21` showed a TGI of 75.5 µM.

As to `COC(=O)Nc1nc2ccc(S(=O)(=O)c3ccc(NC(=O)Nc4cc(C(F)(F)F)ccc4F)cc3)cc2[nH]1`, the GI50 was more than 25 µM and the TGI is more than 25 µM.

Take `COc1cc2c(cc1OCCCCN1CCN(CCCCOc3cc4c(cc3OC)C(=O)N3CCC[C@H]3C=N4)CC1)N=C[C@@H]1CCCN1C2=O`: the TGI was determined as 0.746 µM.

`CCOC(=O)C(=O)Nc1cccc(C)c1C` had a TGI of more than 100 µM.

As for `O=C1C(NS(=O)(=O)c2ccccc2)=C(N(Cc2ccccc2)Cc2ccccc2)C(=O)c2ccccc21`, the TGI is more than 100 µM.

On to `C/C([O-])=C(/c1nc(-c2ccc([N+](=O)[O-])o2)no1)[n+]1cc(C)ccc1C`, for which the TGI stood at 27.5 µM.

Regarding `CC(=O)NC(CO)C(=O)NC(Cc1ccc(O)cc1)C(=O)NCC(N)=O` (stereo not drawn) (Ac-Ser-Tyr-Gly-NH2; configuration not given here), the TGI was more than 100 µM.

Regarding `CC(=O)C1C(=O)C(=O)N(c2ccc(Br)cc2)C1=O` (stereo not given), the TGI is more than 100 µM.

`O=C1c2ccccc2C(=O)c2c(O)c(NCCNCCO)cc(O)c21` showed a TGI of 10.8 µM.

For `COc1cc(Cc2ccc3c(c2C#N)N(C)c2ccccc2S3)cc(OC)c1OC`, the TGI is more than 100 µM.

`NNC(=S)N/N=C(/C(=O)Nc1ccc([N+](=O)[O-])cc1)c1nc2ccc([N+](=O)[O-])cc2[nH]c1=O`: the TGI is more than 100 µM.

For `O=C(CC(=O)c1ccccc1)C(=O)NC12CC3CC(CC(C3)C1)C2`, the TGI is more than 100 µM.

With `c1ccc(/C(=N\Nc2ccc3ccccc3n2)c2ccccn2)cc1`, the GI50 was 0.292 µM and the TGI was determined as 5.4 µM.

`O=C1/C(=C\c2ccccc2)c2ccccc2N1/N=C\c1ccccc1` had a TGI of more than 100 µM.

On to `Cc1nc2nn(C)cc2c(=O)n1/N=C/c1ccccc1`, for which the TGI was more than 100 µM.

In the case of `O=[N+]([O-])c1cc2c(ccc3occc32)o1`, the GI50 is 5 µM and the TGI is 28.2 µM.

For `CCCN(CCC)C(=O)c1c(Cl)c2cccnc2n2c(C)cnc12`, the TGI was more than 100 µM.

In the case of `Cc1cc(C(O)CNC(C)CCn2cnc3c2c(=O)n(C)c(=O)n3C)ccc1O` (stereo not given), the TGI was more than 100 µM.

Take `Cc1cc(C#N)c(Nc2ccccc2[N+](=O)[O-])s1`: the TGI is more than 100 µM.

In the case of `CN(C)c1ncnc2c1ccn2C1OC(CO)C(O)C1O` (stereo not given), the GI50 was 0.589 µM and the TGI was found to be 12.4 µM.

Consider `Oc1ccc(O)c2c1C1(Cl)C(Cl)=C(Cl)C2(Cl)C1(Cl)Cl`, for which the GI50 was 3.63 µM and the TGI worked out at 13.3 µM.

Take `COC1C(OC(N)=O)C(O)C(Oc2ccc3c(O)c(NC(=O)c4ccc(O)c(CC=C(C)C)c4)c(=O)oc3c2C)OC1(C)C` (stereo not given): the TGI was more than 100 µM.

`Nc1ccc(C2=Nc3ccccc3SC(c3ccccc3O)C2)cc1` (stereo not given) returned a TGI of more than 100 µM.

Consider `CCSC12CC3c4cccc5c4C(CN5C(=O)c4ccccc4)CC3(O1)N(C)C2=O` (stereo not given), for which the TGI was more than 100 µM.

Compound `O=C(O)C1CC2CC(=O)C1C2` (stereo not given) registered a TGI of more than 100 µM.

For `Cc1cc(Cl)ccc1Nc1nc(C(F)(F)F)ccc1C(=O)Nc1cccc(C(F)(F)F)c1`, the GI50 is 2.78 µM and the TGI amounted to 14 µM.

As for `O=C(Cn1c2ccccc2c2ccncc21)N/N=C\c1ccc2ccccc2c1`, the GI50 is 19.4 µM and the TGI was more than 100 µM.

For `CCCCN(CCCC)CCC(O)c1cc2ccc(C(F)(F)F)cc2c2cc(C(F)(F)F)ccc12` (stereo not given), the GI50 was 12 µM and the TGI turned out to be 27.5 µM.

The compound `CCOC(=O)c1c(NC(=O)c2ccc(Br)cc2)sc2c1CCCC2` showed a TGI of more than 100 µM.

In turn, `COc1cc2c(Cc3cc(OCc4ccccc4)ccc3N)nccc2c(OC)c1OC` gave a TGI of more than 10 µM.

As to `O=C1NN=C(c2ccc([N+](=O)[O-])cc2)C1n1nc(-c2ccccc2)c2ccccc2c1=O` (stereo not given), the TGI is more than 100 µM.

On to `Cc1cn2c(/C=C3/C(=O)Nc4ccccc43)c(C)nc2s1`, for which the TGI was more than 100 µM.

Turning to `C=C1C(=O)O[C@H]2[C@H]1CC/C(CNC(=O)/C=C/c1ccc(Cl)cc1Cl)=C\CC[C@@]1(C)O[C@@H]21`, the GI50 was 2.49 µM and the TGI worked out at 9.3 µM.

Consider `[O-][n+]1c2cc(CN3CCOCC3)c(CN3CCOCC3)cc2[n+]([O-])c2c(O)cccc21`, for which the TGI worked out at 36.3 µM.

With `CNc1ncnc2c1cnn2Cc1cn(CCCCO)nn1`, the TGI is more than 100 µM.

In the case of `CCC(=O)c1c(C(F)(F)F)n([O-])c2ccccc2[n+]1=O`, the GI50 is 4.25 µM and the TGI came out at 17.8 µM.

In turn, `COc1ccc(/C(C#N)=C(/N)SCc2ccccc2Cl)cc1` displayed a TGI of 74 µM.

As to `N#Cc1c(N2CCOCC2)ncn(-c2ccc(Cl)cc2)c1=O`, the TGI was more than 100 µM.

As to `COC(=O)C1=C(c2ccc(Cl)cc2)C(O)N=C(NN)N1` (stereo not given), the TGI is more than 100 µM.

With `COc1cccc(C(=O)N[C@@H]2[C@H](O)[C@@H](CO)O[C@H]2n2cnc3c(N)ncnc32)c1`, the TGI is more than 100 µM.

For `CCOC(=O)c1ccc(Nc2cnc3ccc(C(F)(F)F)cc3n2)cc1`, the TGI was 38.7 µM.

`C=C(C)C(=O)O[C@H]1CC2=CC(CC(C)=C[C@H]3OC(=O)C(=C)C13)OC2=O` (stereo not given in full) yielded a TGI of more than 100 µM.

`O=S(=O)(N/N=C/c1ccc(Cl)cc1Cl)c1ccccc1` yielded a TGI of more than 100 µM.

For `CN(C)CC1=Nc2cccc3cccc(c23)N1`, the TGI was more than 100 µM.

With `CC1=NN(C(=O)c2nn(-c3ccc(Cl)cc3)cc2O)C(=O)C1`, the GI50 was 1.11 µM and the TGI is more than 100 µM.

`O=c1c(Sc2ncccn2)c(Sc2ncccn2)cnn1CCl` gave a TGI of 30.9 µM.

Regarding `c1ccc2c(CN3CCC(C4CCN(Cc5cccc6ccccc56)CC4)CC3)cccc2c1`, the TGI was 27.5 µM and 37.4 µM.

As for `NCCC1([N+](=O)[O-])CCNCC1`, the TGI is more than 100 µM.

For `Cc1cc(C)nc(NS(=O)(=O)c2ccc(NC(=O)c3cccc4c(N)c5ccccc5nc34)cc2)n1`, the TGI is more than 100 µM.

In the case of `CN(CCCN(C)CCC1CCCCC1)CCC1CCCCC1`, the GI50 is 6.11 µM and the TGI stood at 17.8 µM.

Consider `O=C1COCCN1c1ccc(NCc2cn(C(=O)c3ccc(Cl)cc3)c3ccccc23)cc1`, for which the GI50 is 8.21 µM and the TGI is more than 100 µM.

Regarding `OC1(c2ccc3ccccc3c2)c2c(c3ccccc3c3ccccc23)C2=NCCN21` (stereo not given), the TGI was found to be 74.6 µM.

Compound `COc1nc(C)nc2c1ncn2Cc1ccccc1` came in with a TGI of more than 100 µM.

In the case of `COC(=O)C1=NN2c3ccccc3CN([C@@H](C)c3ccccc3)C(=O)[C@H]2[C@@H]1C`, the TGI is more than 100 µM.

The compound `CC(=O)/C(=C(/Br)I)c1ccccc1` returned a TGI of 29.1 µM.

As for `COc1cc2c3cc1Oc1c(OC)c(OC)cc4c1C(Cc1ccc(cc1)Oc1cc(ccc1O)CC3N(C)CC2)N(C)CC4` (stereo not given), the TGI was 56.4 µM and 27.2 µM.

`COc1cc(-c2oc3c(OC)c(O)cc(O)c3c(=O)c2OC)ccc1O`: the TGI is more than 100 µM.

As for `Cc1ccc(Nc2nc(C)c(C(/C=C/c3ccc4c(c3)OCO4)=N/Nc3ccc([N+](=O)[O-])cc3[N+](=O)[O-])s2)c([N+](=O)[O-])c1`, the TGI was more than 100 µM.

With `O=[N+]([O-])c1ccc2[nH]c(O)c(N=NC(=S)Nc3ccccc3)c2c1`, the TGI came to 23.7 µM.

The values above are taken from PubChem BioAssay (NCI).
